B1: TPR 5TU (parent)
chain: GGAUCUUCUCGAUCUAACAAAAAAGACAAAUCUGCCACAAAGCUUGAGAGCAUCUUCGGAUGCAGAGGCGGCAGCCUUCGGUGGCGCGAUAGCGCCAACGUUCUCAACUAUGACACGCAAAACGCGUGCUCCGUUGAAUGGAGUUUAUCAUG

Variants at the floor of the assay are shown more often than the library holds them.

This data set covers variants of B1. Nature of the data set: polymerase ribozyme fitness, log enrichment relative to wild type (log ratio); higher = more active; in vitro selection for triplet polymerase activity. Put shortly:
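Fitness compares each genotype's enrichment to that of the wild type on a logarithmic scale, averaging replicates with inverse-variance weights. The logarithm is base 2. Enrichment came from Illumina sequencing of input and output libraries after one triplicate round of in vitro selection, which included frozen incubation at −7 °C, of PCR-built, transcribed mutant libraries of each subunit of a heterodimeric triplet polymerase ribozyme. Only genotypes with ≥10 input reads and ≥1 read per output were kept.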
On to A23U G46A G59C C99G U148G, for which the “polymerase ribozyme fitness (log ratio)” value is not above -4.2.
For the variant A26C U44A A47C C54U A110C A147C, the “polymerase ribozyme fitness (log ratio)” value is not above -4.2.
For A24C A91G C118U A121G A137G A147C the value was not above -4.2.
As for A23U G25U A47C U55G G67A A73U A91U C95A C105U U146A, the figure is not above -4.2; as for A26C G42A U53A C72A G80U G84C A98C U101A C103A U109G, not above -4.2; as for A23U G46A U61G A91U, not above -4.2.
For G25A A28U G48U C51A U56C A64G G84U C116U the value was not above -4.2; for A24G A28C C43G C54G G59U A119U A137G A138U, not above -4.2; for G25C C27U U56G C63A A66C C95G A107C U127C, not above -4.2.
Consider G25U A40C C76G G86A C95A U144C, for which the “polymerase ribozyme fitness (log ratio)” value was not above -4.2.
As for A26C C43U G48U C108U C116G A120U U134C, the figure is not above -4.2; as for A24U A137U, not above -4.2; as for A26U U78G A89C C116U U146C, not above -4.2.
Take A24C A138U: the “polymerase ribozyme fitness (log ratio)” value was not above -4.2.
As for A24G C32U G81U G100A A138G G152A, the figure is not above -4.2; as for A26G C95U C96A G117A, not above -4.2; as for A24U A41G U44A C54A U61G U77G G140C, not above -4.2.
As for A26U C93A, the figure is not above -4.2.
A24C A29U A40G U55A G71C A98U U135G: the “polymerase ribozyme fitness (log ratio)” value was not above -4.2.
As for C27A A49C A60U C75A U102A, the figure is not above -4.2; as for A26G C32A C36G G68A, not above -4.2; as for A26C U77A C105A U144G, not above -4.2.
As for A24U C27A G46C C75G C79U C87G G141C, the figure is not above -4.2; as for A26U A49C C87G C99G C103G U135G, not above -4.2.
As for A26C G83C A98G A138U, the “polymerase ribozyme fitness (log ratio)” value is not above -4.2.
On to A24C A26U G50A C93A C96U C114G C132U, for which the “polymerase ribozyme fitness (log ratio)” value is not above -4.2.
As for A23U U31C U44G A73C C87G, the figure is not above -4.2; as for G25U A52G C69U C96U C108G, not above -4.2.
As for A24U G59A U61G G86U, the figure is not above -4.2; as for A26U G48C C93A, not above -4.2.
As for A26U A29U C72U A97C U111G, the figure is not above -4.2; as for A26U A49C A52G C69U C116A G152U, not above -4.2; as for A26G G50C C72A G84C A107U U111G G140A, not above -4.2.
For the variant A24G C35G C57U A107U U134C U144C, the “polymerase ribozyme fitness (log ratio)” value was not above -4.2.
Take G25U U31C C43A G46A C96G: the “polymerase ribozyme fitness (log ratio)” value is not above -4.2.
Turning to A26U G70A G84A C87G A113C A120G, the “polymerase ribozyme fitness (log ratio)” value is not above -4.2.
Take A26U C38U G42A C93U A97U: the “polymerase ribozyme fitness (log ratio)” value was not above -4.2.
A26C U31A G42C G46C G94A: the “polymerase ribozyme fitness (log ratio)” value is not above -4.2.
As for G25U A29C G50C C51A A52U U55A U78A C85U, the “polymerase ribozyme fitness (log ratio)” value is not above -4.2.
For A24U A39C U55C C75G G88A C95U A97C G117A U145G the value was not above -4.2; for A26G A39U C96G C105U A120U G152U, not above -4.2; for G25U C85A C103G U104G U134A A147U, not above -4.2.
As for A24U C125A C131A A147C, the figure is not above -4.2; as for A24G C38U G59C A98G U101G A119C G128C G140A, not above -4.2; as for A24U A29G C85U C105A C116G C125G U144G, not above -4.2.
Consider A23U G46C G50C U55A C69G G88C G92C A142C, for which the “polymerase ribozyme fitness (log ratio)” value was not above -4.2.
For A24U U33G C57A C114U A119C U127A the value was not above -4.2; for C27A A49C U61A G68U C87A G152A, not above -4.2.
Turning to A24C G58A G86C G136C C149U, the “polymerase ribozyme fitness (log ratio)” value was not above -4.2.
As for G25C A49C A60C C96U, the figure is not above -4.2; as for A26U G46C C85A, not above -4.2; as for A26U A28U C36A U56A C85U, not above -4.2.
For G25A A26C A30U G59U A91C the value was not above -4.2; for G25A C32U C85U U104G G136U, not above -4.2.
Regarding A26G A28C G59C A64C G136U G143U, the “polymerase ribozyme fitness (log ratio)” value was not above -4.2.
As for A26C U31G G42A U61G G71A G84A A97U G100A C118A U148A, the “polymerase ribozyme fitness (log ratio)” value is not above -4.2.
On to G25U A39U G68C C69A C116G, for which the “polymerase ribozyme fitness (log ratio)” value is not above -4.2.
As to A24C U55A G88C C108U U148G, the “polymerase ribozyme fitness (log ratio)” value is not above -4.2.
For A24U A91U C95G C131G the value was not above -4.2; for A26U G48C G84U U139C, not above -4.2; for A23U G71A, not above -4.2.
With A24U U31G G59C C87U C99G U102G, the “polymerase ribozyme fitness (log ratio)” value is not above -4.2.
As to A26G A40C G46U C72U G86U U101G, the “polymerase ribozyme fitness (log ratio)” value was not above -4.2.
As for G25C A49G G50U G67C U102G U104G, the figure is not above -4.2; as for A26C C85G A89G, not above -4.2.
Take A24U C32U C54G A91G A107U A120G A142C: the “polymerase ribozyme fitness (log ratio)” value is not above -4.2.
For A24C C27A C51U G81A C87U U90A the value was not above -4.2.
In the case of A24C G46C G58C A60G C87A U146G, the “polymerase ribozyme fitness (log ratio)” value is not above -4.2.
As for A24U U33G A60G C75G G81A, the figure is not above -4.2.
As for A24C G46U U109G C129A C149U, the figure is not above -4.2; as for G25U C99U C105A G128A A150G, not above -4.2; as for C27A G42C A52U A60U C116A U148C, not above -4.2.
For A26U C43A G84A C93U A98U U139A G141A C149U the value was not above -4.2; for A24G U61G G68A G88A, not above -4.2; for A26C G86C C118U C125U U139C G141U U144A, not above -4.2.
Take A23U C95U C96U: the “polymerase ribozyme fitness (log ratio)” value was not above -4.2.
For G25A C131G U146C, the “polymerase ribozyme fitness (log ratio)” value was not above -4.2.
As for A24U A52C G70U U101G, the figure is not above -4.2.
For A24U G65C C93U U134C the value was not above -4.2.
With A26U A89G C95U G126U C132G U145A, the “polymerase ribozyme fitness (log ratio)” value was not above -4.2.
Regarding A24G C27A C72A U77G G86U C129U, the “polymerase ribozyme fitness (log ratio)” value was not above -4.2.
As for G25C A49C G50C A91G C96U, the figure is not above -4.2; as for A23U G58A G71A C75G G92A A119U U139C, not above -4.2.
As for G25C C43G C95U, the “polymerase ribozyme fitness (log ratio)” value is not above -4.2.

These data come from the RNAGym collection of RNA variant scans (doi:10.1073/pnas.2313332121).
